Hit rate of the full screen: of about 320,000 compounds, about 9,100 (2.8%) were called active. Inconclusive means that the source gave no clear call. Such entries were picked first, then a sample of the others. Calls come from the whole dose curve; as a rule, active = well fitted activation curve with a large enough effect; inconclusive = small, poorly fitted or top-dose-only effect; inactive = no such curve, though single readings can be large or run the other way. Potencies of inconclusive entries are left out as doubtful fits.
Test: qHTS Assay for Rab9 Promoter Activators; note: nearly all actives have a fitted effect of over 60% in size; for activation, negative = inhibition: % of control where 0% means no effect
Conditions: Huh7 Rab9 promoter-luciferase reporter, luminescence, 24 h; series mostly up to 9.22 µM
Procedure, shortened: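 Luminescence read-out: Huh7 cells stably expressing Rab9-luciferase, treated 24 h with compound at 37 °C, then lysed with luciferase reagent for 10 min at ambient before reading.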
Potency is the fitted concentration of half-maximal effect; tags give direction and shape of the fitted curve.

Row | Compound | Potency | activation, negative = inhibition
1 | COc1ccc(CNC(=O)Cc2ccc(NC(=O)C3=C(C)OCCS3)cc2)cc1 | inconclusive [activator, full curve] | –
2 | Cc1nc(C)c(-c2csc(Nc3cccc(O)c3)n2)s1 | inconclusive [activator, single point] | –
3 | O=C(Nc1ccccc1O)c1c(O)c2c([nH]c1=O)CCCC2 | active: 3.55 µM | –
4 | O=C(Cn1cnc([N+](=O)[O-])n1)c1ccc(O)c(O)c1 | inactive | –
5 | CCc1ccc(NS(=O)(=O)c2ccc3[nH]cc(C(=O)NCC4CCCO4)c(=O)c3c2)cc1 (configuration not stated) | inconclusive [activator, partial curve] | –
6 | CC(=O)Nc1ccc2oc(-c3ccccc3Br)nc2c1 | active: 0.447 µM | –
7 | CCOc1cc(/C=C/c2cc(C(=O)O)c3ccccc3n2)ccc1OC | inconclusive [activator, partial curve] | –
8 | CCOc1cccc2cc(-c3nc4ccc(C(=O)O)cc4[nH]3)c(=O)oc12 | inconclusive [activator, full curve] | –
9 | Cc1ccccc1NC(=O)c1cccc(N2C(=O)C3C4CC(C(Br)C4Br)C3C2=O)c1 (configuration not stated) | inactive | –
10 | Cc1ccnc(NC(=O)c2ccc(Br)s2)c1 | active: 1.58 µM | –
11 | O=C(NCc1cccnc1)c1cccc(-c2cc3ccccc3oc2=O)c1 | – | inactive: -2.68% [at 1.84 µM]
12 | C/C(=N\NC(=O)c1ccc(CN2CCOCC2)cc1)c1ccc(NC(=O)c2ccccc2)cc1 | inconclusive [activator, partial curve] | –
13 | CC1CCCN(C(=O)CN(C)S(=O)(=O)c2ccc3c(c2)c(=O)n(C)c(=O)n3C)C1 (configuration not stated) | inactive | –
14 | COc1cccc(O)c1CN1CCC(Oc2ccc(C(=O)NCc3ccccn3)cc2)CC1 | inactive | –
15 | CCc1ccccc1NC(=O)c1cc2ncc(Br)cn2n1 | inconclusive [activator, single point] | –
16 | C=CCSc1nnc(NC(=O)c2ccc(N3CCCC3=O)cc2)s1 | inconclusive [activator, partial curve, poor fit] | –
17 | O=C(CSc1nnc(NC(=O)c2ccco2)s1)Nc1cccc(F)c1 | inconclusive [activator, partial curve] | –
18 | COc1ccc(C(=O)NCc2nnc(SCC(=O)N3CCCc4ccccc43)o2)cc1OC | inactive | –
19 | CCOc1ccccc1NC(=O)CSc1nccn1-c1ccccc1 | inactive | –
20 | CN1CCN(c2nc(-c3cc4ccccc4o3)cs2)CC1 | inconclusive [activator, single point] | –
21 | O=C(Nc1cccnc1)c1noc2c1CCCC2 | inconclusive [activator, partial curve] | –
22 | N#C/C(=C\c1ccccn1)c1nc2ccccc2s1 | inconclusive [activator, single point] | –
23 | CCOC(=O)C1CCN(C(=S)Nc2ccccc2)CC1 | inactive | –
24 | O=C(O)CSCC(=O)Nc1ccc(-c2nc3ccccc3s2)cc1 | inconclusive [activator, single point] | –
25 | O=C(O)c1cccc(S(=O)(=O)Nc2ccccc2C(=O)NCCc2ccccc2)c1 | inconclusive [activator, single point] | –
26 | O=C(N/N=C/c1cccc(OC(=O)c2ccc3c(c2)OCO3)c1)c1cncc(Br)c1 | inconclusive [activator, single point] | –

Row | Compound | Potency | activation, negative = inhibition
27 | CC1CCC(NC(=O)c2cc(Cl)nc3ccccc23)CC1 (configuration not stated) | inconclusive [activator, single point] | –
28 | O=C(O)/C=C/C(=O)Nc1ccccc1SC(F)(F)F | inactive | –
29 | COc1ccc(-n2cc3ccc([N+](=O)[O-])cc3n2)cc1 | active: 0.447 µM | –
30 | Cc1sc(NC(=O)c2cccs2)c(C(N)=O)c1C | inconclusive [activator, single point] | –
31 | CC(C)(Oc1ccc(Cl)cc1)C(=O)O/N=C(\N)c1ccncc1 | inactive | –
32 | CCN(c1ccc(C)cc1)S(=O)(=O)c1nnc(NC(=O)c2ccco2)s1 | inactive | –
33 | COC(=O)Cn1ncc2c(C)n(Cc3ccccc3)c(C)c2c1=O | inconclusive [activator, partial curve] | –
34 | O=[N+]([O-])c1cccnc1NCCc1ccccc1 | active: 3.16 µM | –
35 | COc1ccc(NC(=O)c2ccc(Oc3ncccn3)cc2)cc1 | inconclusive [activator, partial curve] | –
36 | Oc1[nH]c2ccccc2c1N=Nc1c(F)c(F)c(Cl)c(F)c1F | inconclusive [activator, single point] | –
37 | C=C1c2ccccc2NC(=S)N1Cc1ccc2c(c1)OCO2 | inconclusive [activator, partial curve] | –
38 | C=CCc1cccc2cc(C(=O)Nc3cccc(C(=O)O)c3)c(=O)oc12 | inconclusive [activator, single point] | –
39 | CC(=O)Nc1ccc(N/C=C/C(=O)c2ccc(Br)cc2)cc1 | inconclusive [activator, single point] | –
40 | COc1ccc2nc(/N=C(\N)NC(=O)C(C)(C)C)nc(C)c2c1 | inconclusive [activator, single point] | –
41 | COc1cccc(N/C(C)=C/C(=O)c2ccc(Br)cc2)c1 | inconclusive [activator, single point] | –
42 | C=CCn1c(C)cc(C(=O)CSc2nc3ccccc3o2)c1C | inconclusive [activator, partial curve, poor fit] | –
43 | C=CCNC(=O)/C(C#N)=C/c1ccc(C)o1 | inactive | –
44 | O=C(Oc1ccccc1/C=C\C(=O)c1cc2ccccc2o1)c1cccc(F)c1 | inconclusive [activator, single point] | –
45 | C=CCN(C(=O)Cc1cccs1)c1nc(-c2ccc(S(C)(=O)=O)cc2)cs1 | inconclusive [activator, single point] | –
46 | COc1ccc(-c2cc(C(=O)NC3CCCC3)no2)cc1OC | inactive | –
47 | CC(N=c1ccccn1C(=O)Nc1ccc(Cl)cc1)c1ccco1 (configuration not stated) | inconclusive [activator, partial curve] | –
48 | COCCn1c(SCC(=O)NC2CCCC2)nnc1-c1ccco1 | inactive | –
49 | COc1c(C)cc(S(=O)(=O)NC2CC(C)(C)NC(C)(C)C2)c(C)c1C | inconclusive [activator, single point] | –
50 | CCN(CC)S(=O)(=O)c1ccc(NC2c3ccccc3C(=O)N2Cc2ccc3c(c2)OCO3)cc1 (configuration not stated) | inactive | –
51 | O=C(Nc1cccc(C(=O)O)c1)/C(=C\c1ccccc1)NC(=O)c1ccccc1 | inconclusive [activator, single point] | –
52 | CCN1CCN(C(=O)CCc2nnc(CCCCc3ccccc3)o2)[C@@H](C)C1=O | inactive | –

Row | Compound | Potency | activation, negative = inhibition
53 | CC(=O)Nc1ccc2nc(NC(=O)COc3ccccc3Cl)sc2c1 | inconclusive [activator, single point] | –
54 | Cc1cc(C)n(-c2ccc(C(=O)Nc3nc4ccccc4s3)cc2)n1 | inconclusive [activator, partial curve] | –
55 | O=C1/C(=C/c2cccnc2)Oc2cc(OS(=O)(=O)c3ccc(Cl)cc3)ccc21 | inactive | –
56 | C/C(=N\Nc1ccc(Cl)cc1)c1ccccn1 | inconclusive [activator, single point] | –
57 | O=C(/C=C\Nc1cccc(F)c1)c1ccc2c(c1)OCO2 | inconclusive [activator, full curve] | –
58 | COc1ccc(-c2csc(Nc3ccccn3)n2)cc1OC | active: 2 µM | –
59 | CC(=O)c1sc(NC(=O)c2ccc(F)c(F)c2)nc1C | active: 3.16 µM | –
60 | CCCCCc1ccc(-c2ccc(/C=C/C(N)=O)cc2)nc1 | inconclusive [activator, partial curve] | –
61 | Cc1cc(C)n2ncc(-c3cccc(Br)c3)c2n1 | inactive | –
62 | CCN(CC)CCN1C(=O)C(=O)/C(=C(/O)c2cnn(-c3ccccc3)c2C)C1c1ccc(C)o1 (configuration not stated) | inconclusive [activator, single point] | –
63 | CSCCC(NC(=O)c1ccccc1Cl)C(=O)NC1CCN(Cc2ccccc2)CC1 (configuration not stated) | inactive | –
64 | CCn1ccc(C(=O)Nc2ncc(C)s2)n1 | active: 0.794 µM | –
65 | Clc1ccc(-c2cc(COc3ccccc3)on2)cc1 | inconclusive [activator, partial curve] | –
66 | CC(C)[C@H](NS(=O)(=O)c1ccc(Cl)cc1)C(=O)OCC(=O)NCCN1C(=O)CSC1=O | inactive | –
67 | O=C1CC(c2ccc3c(c2)OCCO3)Oc2ccc([N+](=O)[O-])cc21 (configuration not stated) | active: 0.562 µM | –
68 | Cc1cccc(OCc2n(CC(=O)OC3CC(C)CCC3C(C)C)c3ccccc3[n+]2C)c1 (configuration not stated) | inactive | –
69 | Cc1ccnc(NC(=O)c2ccoc2C)c1 | inconclusive [activator, single point] | –
70 | CCc1cccc(NC(=O)c2cnn(-c3ccccc3)c2C)c1 | active: 2.24 µM | –
71 | Cn1c(=O)c(C(=O)Nc2ncccn2)c(O)c2ccccc21 | active: 3.16 µM | –
72 | Cc1ccsc1/C=N\NC(=O)c1ccc2c(c1)OCO2 | active: 1.41 µM | –
73 | CCc1ccc2[nH]c3nc(C)cc(C)c3c(=O)c2c1 | inconclusive [activator, partial curve] | –
74 | CN(C)/C=C/c1oc2ccc(O)cc2c1[N+](=O)[O-] | active: 3.16 µM | –
75 | C=CCSc1nnc(-c2ccc(Cl)cc2Cl)o1 | active: 0.447 µM | –
76 | Cn1nccc1C(=O)Nc1ccc(Cl)cc1 | inconclusive [activator, partial curve] | –
77 | Cc1ccc2nc(/C(C#N)=C/c3ccc(O)c(O)c3)[nH]c2c1 | inconclusive [activator, single point] | –
